# Measured values as given in PubChem BioAssay AID485341 (National Center for Advancing Translational Sciences (NCATS), 2010).
# Among all 330,000 compounds or so, about 1,700 (0.52%) were called active. Inconclusive results, whose numbers are uncertain, are shown with a selection of clear calls. Calls follow the shape of the dose curve; as a rule, active = well fitted inhibition curve with a large enough effect; inconclusive = small, poorly fitted or top-dose-only effect; inactive = no such curve, though single readings can be large or run the other way. Potencies beside an inconclusive call are fits to weak or partial responses and may not hold up.
# Target: Beta-lactamase (Escherichia coli (strain K12)) (UniProt P00811)
# Chain of UniProt P00811 (P00811 whole entry, looked up): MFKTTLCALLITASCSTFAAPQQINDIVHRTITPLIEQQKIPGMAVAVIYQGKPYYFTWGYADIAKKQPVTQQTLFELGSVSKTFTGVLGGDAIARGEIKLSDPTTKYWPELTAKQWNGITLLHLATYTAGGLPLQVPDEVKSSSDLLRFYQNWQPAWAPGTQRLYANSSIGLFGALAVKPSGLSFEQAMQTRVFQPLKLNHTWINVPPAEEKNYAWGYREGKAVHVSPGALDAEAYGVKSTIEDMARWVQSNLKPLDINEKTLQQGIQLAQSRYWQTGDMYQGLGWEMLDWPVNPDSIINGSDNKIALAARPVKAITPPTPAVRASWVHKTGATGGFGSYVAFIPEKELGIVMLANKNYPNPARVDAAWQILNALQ
# Experiment: qHTS Inhibitors of AmpC Beta-Lactamase (assay without detergent); also: nearly all actives have a fitted effect of over 20% in size
# Settings: AmpC nitrocefin hydrolysis, absorbance 480 nm, 0.0001% Triton; series mostly up to 57.1 µM
# In short: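 20 mM phosphate pH 7.0 + 0.01% (detergent screen) or 0.0001% Triton X-100; 5.3 nM AmpC reagent; cpd preinc 15 min RT; nitrocefin (800 uM stock) to start; A480 q20 s × 4 min; Activity was normalised to no-enzyme and no-compound control wells.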
# Potency is read from the fitted curve at half-maximal effect; tags tell the direction and shape of the fitted curve.
row,Structure (SMILES),Potency
1,CCN(CC)S(=O)(=O)c1ccc(Cl)c(NC(=O)COC(=O)c2cc(-c3ccccc3Cl)nc3ccccc23)c1,"inconclusive: 3.98 µM [inhibitor, full curve, poor fit]"
2,CCc1ccccc1-n1ncc(C(=O)Nc2ccccc2OC)c1C,inactive
3,CC(=O)c1c(C)[nH]c(C(=O)OCC(=O)Nc2sc3c(c2C#N)CCCC3)c1C,"inconclusive: 20 µM [inhibitor, partial curve]"
4,Cc1cc(C)cc(N=C2NC(=O)/C(=C/c3cccs3)S2)c1,"inconclusive: 14.1 µM [inhibitor, partial curve]"
5,COc1ccccc1N1CCN(CCC(=O)Nc2ccc3c(c2)OCO3)CC1,inactive
6,O=C(Nc1cccc(S(=O)(=O)N2CCOCC2)c1)c1cn(-c2ccccc2)nc1-c1ccc(F)cc1,"inconclusive: 3.16 µM [inhibitor, single point]"
7,COC(=O)c1c(C)[nH]c(C(=O)/C=C/c2ccccc2)c1C,inactive
8,CCOCCCN(C(=O)Cn1nnc2ccccc21)C(C(=O)NCc1ccco1)c1ccncc1 (centres undefined),inactive
9,Cc1ccc(C=C2C(Cl)=C(Cl)C(Cl)=C2Cl)cc1,active: 15.8 µM
10,C=CCOc1ccc(/C=C/C(=O)OCC(=O)N(C)CC(=O)Nc2ccccc2Cl)cc1,"inconclusive: 31.6 µM [inhibitor, single point]"
11,COc1cc(OC)c2c(O)c3c(c(-c4c5c(c(O)c6c(OC)cc(OC)cc46)CO[C@@H](C)[C@H]5O)c2c1)[C@H](O)[C@H](C)OC3,"inconclusive: 14.1 µM [inhibitor, partial curve]"
12,CC(Oc1cccc(NC(=O)c2cccs2)c1)C(=O)c1ccccc1 (centres undefined),"inconclusive: 25.1 µM [inhibitor, single point]"
13,CC(C)Oc1ccc(S(=O)(=O)N2CCCCC2)cc1NC(=O)CN1CCCC1c1cccs1 (centres undefined),inactive
14,Nc1nnc2c(n1)CCCC2,active: 0.158 µM
15,O=C1CC(=O)N(Cc2ccccc2)C(=O)N1CCCCCCN1C(=O)CC(=O)N(Cc2ccccc2)C1=O,active: 7.08 µM
16,C/C(=N/Nc1nc(-c2ccccc2)c(CC(=O)O)s1)c1ccccc1,"inconclusive: 15.8 µM [inhibitor, partial curve]"
17,O=C(/C=C/c1ccncc1)c1ccc(NC(=O)c2ccccc2F)cc1,"inconclusive: 35.5 µM [inhibitor, single point]"
18,O=C(NC(=S)N1CCN(c2ccc([N+](=O)[O-])cc2)CC1)c1ccccc1Cl,"inconclusive: 28.2 µM [inhibitor, single point]"
19,COc1ccc(S(=O)(=O)NCCOc2ccccc2)cc1C,"inconclusive: 2.24 µM [inhibitor, single point]"
20,COc1ccc(Oc2nc(SC)nc3ccccc23)cc1,active: 0.158 µM
21,C=CCN1CCN(C(c2ccc(Cl)cc2)c2nnnn2CCc2ccc(OC)c(OC)c2)CC1 (centres undefined),"inconclusive: 6.31 µM [inhibitor, single point]"
22,Fc1ccc(CSc2nncn2NC/C=C/c2ccccc2)cc1,active: 7.08 µM
23,O=S(=O)(Nc1ccc(-n2cccc2)cc1)c1ccc(Cl)cc1Cl,"inconclusive: 5.01 µM [inhibitor, single point]"

row,Structure (SMILES),Potency
1,COc1ccc(-c2cc(C(=O)N3CCCCC3)c3ccccc3n2)cc1,inactive
2,CSCCC(NC(=O)c1ccc(Cl)cc1)C(=O)OCC(=O)N1CCCC1=O (centres undefined),"inconclusive: 35.5 µM [inhibitor, single point]"
3,CCOc1ccc(-c2n[nH]c(C(=O)NN)c2C)cc1,active: 28.2 µM
4,O=C(Nc1ccc2c(c1)OCCO2)c1cc2sccc2n1Cc1ccccc1,"inconclusive: 20 µM [inhibitor, partial curve]"
5,O=C(CNC(=O)c1ccccc1O)N/N=C/c1cc(Br)ccc1OC(=O)/C=C/c1ccco1,active: 3.16 µM
6,O=C(Nc1cccc(-c2ccc(N3CCOCC3)nn2)c1)c1ccccc1,"inconclusive: 31.6 µM [inhibitor, single point]"
7,Cc1ccc(C)c(-c2nnc(NC(=O)c3ccco3)o2)c1,"inconclusive: 39.8 µM [inhibitor, single point]"
8,Cn1c(=O)c2c(SCC(=O)Nc3ccc4c(c3)OCCO4)nc(CC(C)(C)C)nc2n(C)c1=O,"inconclusive: 2.51 µM [inhibitor, full curve, poor fit]"
9,CCOc1cc(/C=C2\C(=O)N(c3nc(-c4ccc(Br)cc4)cs3)N=C2c2ccccc2)ccc1O,active: 15.8 µM
10,CCN(CC)S(=O)(=O)c1cc(NC(=S)NC(=O)C2CCCC2)ccc1C,inactive
11,O=c1c2c(nc3cc(-c4ccc(F)cc4)[nH]n13)CCC2,inactive
12,O=C(CSc1nnc(C2COc3ccccc3O2)o1)NC1CCCCC1 (centres undefined),active: 39.8 µM
13,O=C(Nc1ccc(F)cc1F)Nc1sccc1-c1nc2ccccc2s1,active: 7.94 µM
14,O=C(Cn1nnc2ccccc21)N/N=C/c1ccco1,inactive
15,COc1ccccc1[C@@H]1C(c2ccc(F)cc2)=NN(c2ccccc2)[C@H]1C(=O)N1CCOC1=O,"inconclusive: 6.31 µM [inhibitor, single point]"
16,CCCCCC(=O)N/N=C/c1ccc(N(C)C)cc1,"inconclusive: 35.5 µM [inhibitor, single point]"
17,CCOc1ccccc1NC(=O)C1CCCN(S(=O)(=O)c2cccc3cccnc23)C1 (centres undefined),active: 5.62 µM
18,CC1(C)C2CC=C(/C=N/NC(=O)c3ccc(Cl)cc3)C1C2 (centres undefined),active: 11.2 µM
19,CCn1c(SCc2nc(-c3cccs3)no2)nnc1-c1c[nH]c2ccccc12,"inconclusive: 0.708 µM [inhibitor, partial curve, poor fit]"
20,S=c1[nH]nc(-c2cc(-c3ccccc3)n[nH]2)n1/N=C/C=C/c1ccccc1,"inconclusive: 7.08 µM [inhibitor, partial curve]"
21,CN(CCOc1ccccc1)C(=O)c1cc([N+](=O)[O-])ccc1N1CCOCC1,"inconclusive: 39.8 µM [inhibitor, single point]"
22,O=c1cc(CN2CCC3(CC2)OCCO3)c2c(ccc3ccccc32)o1,"inconclusive: 8.91 µM [inhibitor, single point]"
23,O=[N+]([O-])c1ccc(N/N=C/c2cccc(O)c2O)c(S(=O)(=O)N2CCOCC2)c1,active: 11.2 µM

row,Structure (SMILES),Potency
1,CCOC1=C/C(=C/c2c(N)n3nc(-c4ccccc4)sc3nc2=O)C=CC1=O,"inconclusive: 15.8 µM [inhibitor, partial curve]"
2,Cc1c2cn[nH]c(=O)c2c(C)n1Cc1ccc(F)cc1,"inconclusive: 0.316 µM [inhibitor, full curve, poor fit]"
3,COc1cccc(C(=O)C2CN(c3ccccc3)CC2c2ccc(Cl)cc2)c1 (centres undefined),"inconclusive: 25.1 µM [inhibitor, partial curve]"
4,NS(=O)(=O)c1ccc(N=Cc2c(O)n(C3CCCCC3)c(=O)n(C3CCCCC3)c2=O)cc1,"inconclusive: 3.98 µM [inhibitor, full curve, poor fit]"
5,O=C(C(Cc1ccccc1)N1C(=O)C2C3C=CC(C3)C2C1=O)N1CCCCC1 (centres undefined),inactive
6,Cn1c(=O)[nH]c2nnc(-c3ccc(Cl)c(Cl)c3)nc2c1=O,"inconclusive: 28.2 µM [inhibitor, single point]"
7,O=C1CC(c2ccccc2)CC(=O)C1Sc1ccc(Cl)cc1 (centres undefined),"inconclusive: 39.8 µM [inhibitor, partial curve]"
8,CC1CCN(C(=O)CSc2nnc(Cc3ccccc3)o2)CC1,"inconclusive: 11.2 µM [inhibitor, partial curve, poor fit]"
9,Cc1ccc(NS(=O)(=O)N2CCOCC2)cc1,inactive
10,C=CCn1c(SCc2nc3ccccc3nc2C)nnc1-c1ccoc1C,inactive
11,O=C(NC(Nc1nc2ccc([N+](=O)[O-])cc2s1)(C(F)(F)F)C(F)(F)F)c1ccccc1,"inconclusive: 28.2 µM [inhibitor, single point]"
12,Cc1nc(NC(=O)c2ccccc2)sc1-c1csc(Nc2cccc(F)c2)n1,active: 15.8 µM
13,O=C(CNC(=O)c1cccc(Br)c1)N/N=C/c1cc(Br)cc(Br)c1O,active: 11.2 µM
14,Cc1cccc(NS(=O)(=O)c2ccc3[nH]c(=O)cc(C(=O)OC(C)C(=O)Nc4ccc([N+](=O)[O-])cc4)c3c2)c1 (centres undefined),"inconclusive: 3.16 µM [inhibitor, single point]"
15,Cn1c(=O)c2c(nc(SCc3nc(N)nc(N4CCCCC4)n3)n2C)n(C)c1=O,inactive
16,CSCCC(NS(=O)(=O)c1ccc2ccccc2c1)C(=O)OCC(=O)c1ccc(C(C)C)cc1 (centres undefined),active: 7.94 µM
17,COc1ccc(OC)c(/C=N/NC(=O)c2cc3c(OC)cccc3[nH]2)c1,"inconclusive: 39.8 µM [inhibitor, single point]"
18,Cc1ccc(NC(=O)CSc2ncccc2C(=O)Oc2cccc([N+](=O)[O-])c2)cc1Cl,"inconclusive: 22.4 µM [inhibitor, partial curve, poor fit]"
19,O=C(c1cc(C2CC2)on1)N1CCN(C(c2ccccc2)c2ccccc2)CC1,"inconclusive: 100 µM [inhibitor, partial curve, poor fit]"
20,O=S(=O)(c1ccc2ccccc2c1)N1CCN(c2ccc(O)cc2)CC1,active: 10 µM
21,COC(=O)[C@@]12CCCCN1[C@H](c1ccc(-c3ccc(Cl)c(Cl)c3)cc1)[C@H]1C(=O)N(C)C(=O)[C@H]12,inactive
22,COc1cccc(NC(=O)Cn2cc(C(=O)C3CC3)c3ccccc32)c1,active: 28.2 µM
23,CN(C)c1ccc(N=Nc2ccccc2C(=O)OCC(=O)N2CCCCCC2)cc1,inactive
